Source: patent US20250066451A1 (SWEDISH ORPHAN BIOVITRUM AB PUBL, published 2025)
Changes are numbered by the printed parent chain.

Molecular target: T1, human IL-1R-I (human, UniProt P14778 18-332, limits assumed)
T1 construct: bought recombinant protein; also called hIL-1R-I; hIL-1RI
T1 sequence (looked up): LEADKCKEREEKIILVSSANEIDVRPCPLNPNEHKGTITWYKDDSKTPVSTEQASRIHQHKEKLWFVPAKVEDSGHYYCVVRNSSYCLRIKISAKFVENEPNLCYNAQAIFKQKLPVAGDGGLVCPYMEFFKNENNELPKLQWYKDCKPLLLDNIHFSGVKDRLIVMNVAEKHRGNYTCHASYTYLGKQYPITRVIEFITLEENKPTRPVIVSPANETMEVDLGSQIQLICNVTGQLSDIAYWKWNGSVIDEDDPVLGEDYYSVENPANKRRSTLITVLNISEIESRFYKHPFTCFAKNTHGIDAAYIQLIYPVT
Assay: SPR screening; Z-ABD captured on anti-ABD, 100 nM hIL-1R-I injected

B1: Z18798 (Z-ABD) (designed binder)
chain: AQHDEALEVDAKYAKETEEIQMEIFQLPNLTRRQYTAFIRKLLDDPSQSSELLSEAKKLNDSQAPKVDYVLAEAKVLANRELDKYGVSDYYKNLINNAKTVEGVKALIDEILAALPYVPG
A Kd of 3.2 nM was found for B1 in this work.

B2: Z18799 (Z-ABD) (designed binder)
chain: B1 chain with T17V, E19A, Q26H, R33K, L43F
A Kd of 2.6 nM was found for B2 in this work.

B3: Z18800 (Z-ABD) (designed binder)
chain: B1 chain with T17I, Q26R
A Kd of 1.9 nM was found for B3 in this work.

B4: Z18803 (Z-ABD) (designed binder)
chain: B1 chain with T17I, E19Q, Q26R
A Kd of 3.1 nM was found for B4 in this work.

B5: Z18804 (Z-ABD) (designed binder)
chain: B1 chain with T17L, Q26R
A Kd of 3.3 nM was found for B5 in this work.

B6: Z18805 (Z-ABD) (designed binder)
chain: B1 chain with T17I, E19A, I20V, Q26A, R33K, L43F
A Kd of 3.7 nM was found for B6 in this work.

B7: Z18806 (Z-ABD) (designed binder)
chain: B1 chain with Q26R, R33K
A Kd of 4.1 nM was found for B7 in this work.

B8: Z18807 (Z-ABD) (designed binder)
chain: B1 chain with T17L, E19I, I20V, Q26S
A Kd of 3.8 nM was found for B8 in this work.

B9: Z18808 (Z-ABD) (designed binder)
chain: B1 chain with T17V, I20V, Q26R, R33K
A Kd of 4.2 nM was found for B9 in this work.

B10: Z18810 (Z-ABD) (designed binder)
chain: B1 chain with I20V, Q26G, R33K, L43F
A Kd of 3.1 nM was found for B10 in this work.

B11: Z18811 (Z-ABD) (designed binder)
chain: B1 chain with T17L, E19T, I20V, Q26H, R33K
A Kd of 4.5 nM was found for B11 in this work.

B12: Z18813 (Z-ABD) (designed binder)
chain: B1 chain with T17V, Q26A, R33K, L43F
A Kd of 2 nM was found for B12 in this work.

B13: Z18817 (Z-ABD) (designed binder)
chain: B1 chain with T17V, Q26R, L43F
A Kd of 3.5 nM was found for B13 in this work.

B14: Z18819 (Z-ABD) (designed binder)
chain: B1 chain with I20V, Q26G
A Kd of 3 nM was found for B14 in this work.

B15: Z18820 (Z-ABD) (designed binder)
chain: B1 chain with T17L, E19A, Q26R, R33K
A Kd of 3.3 nM was found for B15 in this work.

B16: Z18821 (Z-ABD) (designed binder)
chain: B1 chain with I20V, Q26K
A Kd of 3.5 nM was found for B16 in this work.

B17: Z18824 (Z-ABD) (designed binder)
chain: B1 chain with E19A, I20V, Q26H
A Kd of 3.3 nM was found for B17 in this work.

B18: Z18825 (Z-ABD) (designed binder)
chain: B1 chain with E19K, I20V, Q26G, R33K, L43F
A Kd of 4.9 nM was found for B18 in this work.

B19: Z18826 (Z-ABD) (designed binder)
chain: B1 chain with T17I, Q26G
A Kd of 3.5 nM was found for B19 in this work.

B20: Z18827 (Z-ABD) (designed binder)
chain: B1 chain with E19K, I20V, Q26R
A Kd of 4.3 nM was found for B20 in this work.

B21: Z18828 (Z-ABD) (designed binder)
chain: B1 chain with T17V, Q26Y
A Kd of 2.6 nM was found for B21 in this work.

B22: Z18830 (Z-ABD) (designed binder)
chain: B1 chain with T17V, Q26F
A Kd of 2.9 nM was found for B22 in this work.

B23: Z18831 (Z-ABD) (designed binder)
chain: B1 chain with T17I, I20V, Q26Y
A Kd of 3 nM was found for B23 in this work.

B24: Z18832 (Z-ABD) (designed binder)
chain: B1 chain with T17V, Q26H
A Kd of 1.6 nM was found for B24 in this work.

B25: Z18833 (Z-ABD) (designed binder)
chain: B1 chain with T17V, I20V, Q26Y
A Kd of 3.8 nM was found for B25 in this work.

B26: Z18834 (Z-ABD) (designed binder)
chain: B1 chain with T17V, Q26G
A Kd of 2.4 nM was found for B26 in this work.

B27: Z18836 (Z-ABD) (designed binder)
chain: B1 chain with T17V, E19A, Q26G
A Kd of 2.9 nM was found for B27 in this work.

B28: Z18838 (Z-ABD) (designed binder)
chain: B1 chain with T17V, Q26H, R33K
A Kd of 3.3 nM was found for B28 in this work.

B29: Z18839 (Z-ABD) (designed binder)
chain: B1 chain with T17V, E19A, I20V, Q26A, R33K
A Kd of 3.1 nM was found for B29 in this work.

B30: Z18841 (Z-ABD) (designed binder)
chain: B1 chain with T17V, Q26G, R33K
A Kd of 2.5 nM was found for B30 in this work.

B31: Z18843 (Z-ABD) (designed binder)
chain: B1 chain with T17I, Q26Y
A Kd of 3.1 nM was found for B31 in this work.

B32: Z18844 (Z-ABD) (designed binder)
chain: B1 chain with T17L, Q26S
A Kd of 4 nM was found for B32 in this work.

B33: Z18846 (Z-ABD) (designed binder)
chain: B1 chain with T17I, Q26H
A Kd of 2.1 nM was found for B33 in this work.

B34: Z18847 (Z-ABD) (designed binder)
chain: B1 chain with I20V, Q26A, R33K
A Kd of 3 nM was found for B34 in this work.

B35: Z18848 (Z-ABD) (designed binder)
chain: B1 chain with T17I, Q26F, R33K
A Kd of 3 nM was found for B35 in this work.

B36: Z18849 (Z-ABD) (designed binder)
chain: B1 chain with T17I, I20V, Q26Y, R33K, L43F
A Kd of 3 nM was found for B36 in this work.

B37: Z18850 (Z-ABD) (designed binder)
chain: B1 chain with T17I, Q26A
A Kd of 2.6 nM was found for B37 in this work.

B38: Z18851 (Z-ABD) (designed binder)
chain: B1 chain with T17I, E19Q, Q26Y
A Kd of 3.6 nM was found for B38 in this work.

B39: Z18853 (Z-ABD) (designed binder)
chain: B1 chain with T17I, Q26Y, L43F
A Kd of 2.3 nM was found for B39 in this work.

B40: Z18856 (Z-ABD) (designed binder)
chain: B1 chain with T17L, Q26H
A Kd of 2.9 nM was found for B40 in this work.

B41: Z18860 (Z-ABD) (designed binder)
chain: B1 chain with Q26L, R33K, L43F
A Kd of 6.2 nM was found for B41 in this work.

B42: Z18861 (Z-ABD) (designed binder)
chain: B1 chain with T17V, I20V, Q26A
A Kd of 3.3 nM was found for B42 in this work.

B43: Z18863 (Z-ABD) (designed binder)
chain: B1 chain with T17V, I20V, Q26G
A Kd of 2.4 nM was found for B43 in this work.

B44: Z18866 (Z-ABD) (designed binder)
chain: B1 chain with T17I, Q26H, R33K
A Kd of 2.7 nM was found for B44 in this work.

B45: Z18868 (Z-ABD) (designed binder)
chain: B1 chain with T17L, E19I, I20V, Q26H
A Kd of 2.7 nM was found for B45 in this work.

B46: Z18870 (Z-ABD) (designed binder)
chain: B1 chain with T17I, E19A, Q26G, L43F
A Kd of 3 nM was found for B46 in this work.

B47: Z18871 (Z-ABD) (designed binder)
chain: B1 chain with T17V, Q26H, R33K, L43F
A Kd of 3.5 nM was found for B47 in this work.

B48: Z18872 (Z-ABD) (designed binder)
chain: B1 chain with T17I, E19A, I20V, Q26Y
A Kd of 2.6 nM was found for B48 in this work.

B49: Z18873 (Z-ABD) (designed binder)
chain: B1 chain with T17L, I20V, Q26Y
A Kd of 3.1 nM was found for B49 in this work.

B50: Z18874 (Z-ABD) (designed binder)
chain: B1 chain with T17L, E19A, Q26H
A Kd of 2.3 nM was found for B50 in this work.

B51: Z18875 (Z-ABD) (designed binder)
chain: B1 chain with T17I, E19A, Q26H
A Kd of 2.7 nM was found for B51 in this work.

B52: Z18876 (Z-ABD) (designed binder)
chain: B1 chain with T17I, Q26Y, T36V
A Kd of 3.7 nM was found for B52 in this work.

B53: Z18877 (Z-ABD) (designed binder)
chain: B1 chain with T17V, Q26Y, R33K
A Kd of 2.7 nM was found for B53 in this work.

B54: Z18878 (Z-ABD) (designed binder)
chain: B1 chain with T17V, I20V, Q26Y, R33K
A Kd of 3.8 nM was found for B54 in this work.

B55: Z18879 (Z-ABD) (designed binder)
chain: B1 chain with T17V, E19Y, Q26R
A Kd of 6.2 nM was found for B55 in this work.

B56: Z18881 (Z-ABD) (designed binder)
chain: B1 chain with T17I, Q26G, L43F
A Kd of 3.2 nM was found for B56 in this work.

B57: Z18882 (Z-ABD) (designed binder)
chain: B1 chain with T17V, I20V, Q26D
A Kd of 2.6 nM was found for B57 in this work.

B58: Z18884 (Z-ABD) (designed binder)
chain: B1 chain with T17V, E19I, Q26G
A Kd of 2.7 nM was found for B58 in this work.

B59: Z18885 (Z-ABD) (designed binder)
chain: B1 chain with T17V, Q26Y, L43F
A Kd of 3.9 nM was found for B59 in this work.

B60: Z18886 (Z-ABD) (designed binder)
chain: B1 chain with T17I, E19A, Q26G, R33K
A Kd of 3.9 nM was found for B60 in this work.
